Source: PubChem BioAssay (Tox21)
Values joined by “and” are separate entries in the source; they are usually repeats but may differ in a detail not shown here. Equal values may be shown once. Inconclusive means that the source gave no clear call. Such entries were picked first, then a sample of the others. For some assays here: A potency beside an inconclusive call is a rough fit, not a confirmed value. Active and inactive are the calls of the source. Unless noted, calls follow the shape of the dose curve; as a rule, active = well fitted curve in the direction sought with a large enough effect in the repeat runs; inconclusive = weak or mixed curves; inactive = no such curve, though single readings can be large; an effect the other way counts as inactive or inconclusive.

What was measured:
[1] = qHTS assay to identify small molecule antagonists of the retinoid acid receptor (RAR) signaling pathway - cell viability counter screen (AID 1159551); also: nearly all actives have a fitted effect of over 35% in size; also: potency is read from the fitted curve at half-maximal effect
Summary of the method: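 Following overnight attachment, C3RL4 reporter cells received DMSO-dissolved compounds and then retinol (1 uM final). Six hours later at 37 C, ATP content was measured by CellTiter-Glo luminescence.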

[2] = qHTS assay to identify small molecule agonists of the retinoic acid receptor (RAR) signaling pathway (AID 1159553); conditions: C3RL4 RARE luciferase reporter, agonist, 6 h; series mostly up to 73.3 µM
Summary of the method: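 Cell line C3RL4, RARE luciferase reporter. Treatment: compounds in DMSO, 6 hr, 37 C, 5% CO2, after overnight plating. Detection: luminescence, 30 min RT after reagent.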

[3] = qHTS assay to identify small molecule antagonists of the estrogen related receptor (ERR) signaling pathway - cell viability counter screen (AID 1224818);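 also: potency is read from the fitted curve at half-maximal effect; viability measured after 17.5 h of compound exposure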
Summary of the method: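 Here, ERR cells are plated at 2,000 cells per well, allowed 6 h to attach, and treated with compounds in DMSO for 17.5 h at 37 C. CellTiter-Fluor is then added and fluorescence read after 30 min.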

[4] = qHTS assay to identify small molecule antagonists of the estrogen related receptor (ERR) signaling pathway (AID 1224819; also: potency is read from the fitted curve at half-maximal effect; nearly all actives have a fitted effect of over 50% in size)
Summary of the method: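 LOPAC library screened for antagonism as reduced One-Glo luminescence in ERR reporter cells (2,000/well). Compounds were added after 6 h pre-incubation and left 18 h at 37C; reading followed a 30 min room-temperature reagent step.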

[5] = test system: estrogen-related receptor alpha (ERRalpha) with PGC-1alpha coactivator, human; test: qHTS assay to identify small molecule antagonists of the estrogen related receptor signaling pathway with the pleiotropic PPARgamma coactivator (PGC) (AID 1224821; calls by dose curve; also: potency is read from the fitted curve at half-maximal effect; nearly all actives have a fitted effect of over 50% in size)
Summary of the method: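 Cells engineered for PGC/ERR signalling (line from NTP) were plated 6 h at 37 C/5% CO2, then exposed to DMSO-dissolved compound for 18 h at 37 C. Luciferase activity was read by One-Glo luminescence after 30 min at room temperature.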

[6] = qHTS assay to identify small molecule antagonists of the estrogen related receptor signaling pathway with the pleiotropic PPARgamma coactivator (PGC) cell viability counter screen (AID 1224822; also: potency is read from the fitted curve at half-maximal effect;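 also: viability read after 17.5 h compound exposure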)
Summary of the method: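 qHTS format, DMSO compound stocks pin-transferred onto PGC/ERR cells 6 h after plating; 17.5 h exposure at 37 C, then CellTiter-Fluor fluorescence.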

[7] = qHTS assay to identify small molecule agonists of the constitutive androstane receptor (CAR) signaling pathway - cell viability counter screen (AID 1224836); also: potency is read from the fitted curve at half-maximal effect; nearly all actives have a fitted effect of over 45% in size
Summary of the method: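 HepG2-CYP2B6-hCAR, 2500 cells/well, 4 h pre-incubation; cpd 15 conc + PK11195 0.75 uM final; 23 h, 37 C/5% CO2; CellTiter-Fluor, fluorescence.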

[8] = qHTS assay to identify small molecule antagonists of the constitutive androstane receptor (CAR) signaling pathway - cell viability counter screen (AID 1224837); also: potency is read from the fitted curve at half-maximal effect; nearly all actives have a fitted effect of over 45% in size
Summary of the method: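 Fluorescence from CellTiter-Fluor served as the viability signal. Human hepatoma HepG2 cells stably bearing hCAR and CYP2B6-2.2kb received compound plus CITCO (50 nM final) for 23 hr.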

[9] = qHTS assay to identify small molecule antagonists of the estrogen related receptor signaling pathway with the pleiotropic PPARgamma coactivator (PGC) from Tox21 10K library - cell viability counter screen (AID 1224840; active = well fitted cell-killing curve with a large enough effect in the repeat runs, not every such curve was filed as active; inconclusive = weak or mixed curves, or effect the other way; inactive = no such curve, though single readings can be large or run the other way; also: potency is read from the fitted curve at half-maximal effect; nearly all actives have a fitted effect of over 40% in size)
Summary of the method: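 Compounds in DMSO, alongside positive and negative controls, were pinned onto PGC/ERR cells (2,000 per well). Exposure lasted 17.5 hours at 37 C, followed by a 30-minute CellTiter-Fluor incubation and fluorescence reading.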

[10] = qHTS assay to identify small molecule agonists of the hypoxia (HIF-1) signaling pathway - cell viability counter screen (AID 1224844; calls by dose curve; also: nearly all actives have a fitted effect of over 50% in size; also: potency is read from the fitted curve at half-maximal effect)
Summary of the method: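 Luminescent ATP content (CellTiter-Glo, 30 min, room temperature) served as the viability measure in HRE-bla ME-180 cells exposed to compounds for 17 hrs in low-serum medium (0.5% dialyzed FBS).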

[11] = qHTS assay to identify small molecule antagonists of the retinoic acid receptor (RAR) signaling pathway (AID 1159552; also: potency is read from the fitted curve at half-maximal effect; nearly all actives have a fitted effect of over 50% in size)
Summary of the method: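 Cells of the C3RL4 line were seeded, incubated overnight, then dosed with compounds in DMSO followed immediately by retinol (1 uM final). Six hours later luciferase detection reagent went in; signal was measured after 30 min at RT.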
Tags tell the direction and shape of the fitted curve.

Structure (SMILES)	Potency [1]	Potency [2]	Potency [3]	Potency [4]	Potency [5]	Potency [6]	Potency [7]	Potency [8]	Potency [9]	Potency [10]	Potency [11]
Cn1cnc([N+](=O)[O-])c1Sc1ncnc2nc[nH]c12	inconclusive: 30.5 µM [rising, partial curve, poor fit]	inactive	inconclusive: 43.3 µM [cytotoxic, partial curve, poor fit] and inconclusive: 13.3 µM [cytotoxic, partial curve, poor fit]	inconclusive: 68.6 µM [inhibitor, single point] and inconclusive: 11 µM [inhibitor]	inconclusive: 3.31 µM [inhibitor] and inconclusive: 3.35 µM [inhibitor]	inconclusive: 48.6 µM [cytotoxic, partial curve, poor fit] and inactive	active: 6.82 µM and inconclusive: 7.5 µM [cytotoxic, full curve]	inconclusive: 8.56 µM [cytotoxic, full curve] and inconclusive: 7.5 µM [cytotoxic, full curve]	inconclusive: 21.6 µM [cytotoxic, full curve]	inconclusive: 17.3 µM [cytotoxic, partial curve] and inactive	
CCOC(=O)C1=C(C)NC(C)=C(C(=O)OC)C1c1cccc(Cl)c1Cl (centres undefined)	inactive			inconclusive: 23.7 µM [inhibitor, single point]		inconclusive: 29.8 µM [cytotoxic]					inconclusive: 21.1 µM [inhibitor, partial curve]
